Laboratory results published in patent publication US20030099969A1 (published 2003).

Molecular target: T1, 35S-labeled Ipaf (human, UniProt Q9NPP4 1-1024, limits assumed, 35S-labeled)
T1 construct: Radiolabeled Ipaf used in the GST pull-down
Test: GST pull-down on glutathione Sepharose beads, SDS-PAGE and autoradiography

- binding result: no binding
B1: GST (other)
chain: not shown
notes: Control protein in the pull-downs; also called GST control
